One experiment concerns HSkMC. The experiment is described as follows: cytotoxicity call (relative viability < 0.9). The note with it: 10 µM.
The next experiment relates to HepG2. The experiment is described as follows: cytotoxicity call (relative viability < 0.9). Conditions: 10 µM.
The test system of a further experiment is S. aureus RN4220. The experiment is described as follows: growth inhibition call (relative growth <= 0.2). The note with it: 50 µM.

Structures are written as SMILES. The list shows a part of the results.

For `Nc1cncc(Cl)n1`, the cytotoxicity call with HSkMC and in the experiment with HepG2 was “inactive” in each case. Also, the growth inhibition call in the experiment with S. aureus RN4220 is “inactive”.
As to `CO[C@H]1CN(C)C(=O)c2ccc(NC(=O)c3ccccc3)cc2OC[C@H](C)N(C(=O)CN(C)C)C[C@H]1C`, the cytotoxicity call in the experiment on HSkMC and in the experiment with HepG2 was “inactive” throughout. Moreover, the growth inhibition call with S. aureus RN4220 is “inactive”.
As to `CNC(=O)C[C@@H]1CC[C@@H]2[C@@H](COc3ccc(NC(=O)c4ccc(C(F)(F)F)cc4)cc3C(=O)N2C)O1`, the cytotoxicity call with HSkMC and in the experiment on HepG2 was “inactive” throughout. The growth inhibition call with S. aureus RN4220 is “inactive”.
For the compound `CO[C@H]1CN(C)C(=O)c2ccc(NC(=O)Nc3cccc(Cl)c3)cc2OC[C@H](C)N(C(=O)Nc2c(C)noc2C)C[C@H]1C`, the cytotoxicity call with HSkMC and in the experiment on HepG2 was “inactive” throughout. Also, in the experiment on S. aureus RN4220, the growth inhibition call is “inactive”.
As for `C[C@@H]1CCCCO[C@H](CN(C)C(=O)CCCN(C)C)[C@@H](C)CN([C@H](C)CO)C(=O)c2cc(NS(=O)(=O)c3cn(C)cn3)ccc2O1`, the cytotoxicity call in the experiment on HSkMC and with HepG2 was “inactive” each time. Besides, the growth inhibition call in the experiment on S. aureus RN4220 is “inactive”.
For the compound `CC(C)NC(=N)NC(=N)Nc1ccc(Cl)cc1.Cl`, the cytotoxicity call with HSkMC is “inactive”. Besides, in the experiment on HepG2, the cytotoxicity call is “active”. Moreover, the growth inhibition call in the experiment on S. aureus RN4220 is “inactive”.
As to `C[C@@H]1CCCCO[C@H](CN(C)Cc2ccc(C(=O)O)cc2)[C@H](C)CN([C@H](C)CO)C(=O)c2cc(NC(=O)Cc3ccccc3)ccc2O1`, the cytotoxicity call in the experiment with HSkMC and with HepG2 was “inactive” each time. Further, the growth inhibition call in the experiment on S. aureus RN4220 is “inactive”.
Turning to `Nc1ccn([C@H]2C[C@H](O)[C@@H](CO)O2)c(=O)n1`, the cytotoxicity call in the experiment with HSkMC and in the experiment on HepG2 was “inactive” throughout. The growth inhibition call with S. aureus RN4220 was “inactive”.
With `C[C@@H]1CN([C@H](C)CO)C(=O)c2cc(NC(=O)CCC(F)(F)F)ccc2O[C@@H](C)CCCCO[C@@H]1CN(C)C(=O)Cc1ccccc1`, the cytotoxicity call in the experiment with HSkMC and in the experiment on HepG2 was “inactive” in each case. The growth inhibition call in the experiment on S. aureus RN4220 is “inactive”.
As for `COc1ccc(S(=O)(=O)N[C@@H]2CC[C@H](CCNC(=O)CN3CCOCC3)O[C@H]2CO)cc1`, the cytotoxicity call in the experiment with HSkMC and in the experiment with HepG2 was “inactive” in each case. Besides, in the experiment with S. aureus RN4220, the growth inhibition call was “inactive”.
For the compound `C[C@@H]1CCCCO[C@@H](CN(C)C(=O)Nc2ccc(F)cc2)[C@@H](C)CN([C@@H](C)CO)C(=O)c2cc(NC(=O)CCCN(C)C)ccc2O1`, the cytotoxicity call in the experiment with HSkMC and in the experiment on HepG2 was “inactive” each time. Moreover, the growth inhibition call with S. aureus RN4220 is “inactive”.
`N[C@@H](Cn1ccc(=O)c(O)c1)C(=O)O`: the cytotoxicity call with HSkMC and with HepG2 was “inactive” in each case. The growth inhibition call with S. aureus RN4220 was “inactive”.
Take `C[C@@H]1CN([C@H](C)CO)C(=O)c2cccc(NC(=O)c3ccc(-c4nccs4)cc3)c2O[C@@H]1CN(C)Cc1ccc(Cl)c(Cl)c1`: the cytotoxicity call in the experiment on HSkMC and with HepG2 was “inactive” each time. Further, the growth inhibition call in the experiment with S. aureus RN4220 is “inactive”.
For `C[C@H]1CN([C@@H](C)CO)C(=O)Cc2cc(NC(=O)Cc3cn(C)c4ccccc34)ccc2O[C@@H]1CN(C)C(=O)Nc1cccc2ccccc12`, the cytotoxicity call with HSkMC and in the experiment with HepG2 was “inactive” in each case. For the same compound, in the experiment on S. aureus RN4220, the growth inhibition call was “inactive”.
With `CN1C(=O)c2cc(NC(=O)c3cnccn3)ccc2OC[C@H]2O[C@H](CC(=O)NCC3CCCCC3)CC[C@@H]21`, the cytotoxicity call in the experiment with HSkMC and in the experiment on HepG2 was “inactive” throughout. Also, in the experiment on S. aureus RN4220, the growth inhibition call is “inactive”.
On to `C[C@H]1CN([C@@H](C)CO)C(=O)Cc2cc(NC(=O)Cn3cnnn3)ccc2O[C@H]1CN(C)C(=O)Nc1cccc2ccccc12`, for which the cytotoxicity call in the experiment with HSkMC and in the experiment with HepG2 was “inactive” in each case. In the experiment with S. aureus RN4220, the growth inhibition call is “inactive”.
Regarding `C[C@H](CO)N1C[C@H](C)[C@@H](CN(C)S(=O)(=O)c2cccs2)Oc2ccc(NC(=O)C3CC3)cc2C1=O`, the cytotoxicity call with HSkMC and with HepG2 was “inactive” each time. For the same compound, the growth inhibition call with S. aureus RN4220 was “inactive”.
Take `CNC(=O)C[C@@H]1CC[C@@H]2[C@H](COC[C@H](O)CN2C(=O)c2ccc3c(c2)OCO3)O1`: the cytotoxicity call in the experiment on HSkMC and in the experiment with HepG2 was “inactive” throughout. The growth inhibition call with S. aureus RN4220 is “inactive”.
As for `C[C@H]1CN([C@@H](C)CO)S(=O)(=O)c2ccc(C#Cc3cccc(F)c3)cc2O[C@@H]1CN(C)S(=O)(=O)c1ccccc1F`, the cytotoxicity call in the experiment with HSkMC and in the experiment on HepG2 was “inactive” each time. Further, the growth inhibition call in the experiment on S. aureus RN4220 is “inactive”.
`CC(C)NC(=O)N[C@@H]1C=C[C@H](CC(=O)NCCN2CCCC2)O[C@@H]1CO`: the cytotoxicity call in the experiment with HSkMC and in the experiment on HepG2 was “inactive” in each case. In addition, in the experiment on S. aureus RN4220, the growth inhibition call is “inactive”.
Consider `COc1ccc(S(=O)(=O)N(C)C[C@H]2Oc3c(NC(=O)Nc4cccc5ccccc45)cccc3C(=O)N([C@@H](C)CO)C[C@H]2C)cc1`, for which the cytotoxicity call in the experiment on HSkMC and with HepG2 was “inactive” each time. Further, the growth inhibition call with S. aureus RN4220 is “inactive”.
With `NS(=O)(=O)c1cc2c(cc1C(F)(F)F)NCNS2(=O)=O`, the cytotoxicity call in the experiment with HSkMC and in the experiment on HepG2 was “inactive” each time. Further, the growth inhibition call in the experiment with S. aureus RN4220 is “inactive”.
Turning to `COc1ccc(S(=O)(=O)N(C)C[C@H]2Oc3ncc(-c4ccncc4)cc3C(=O)N([C@H](C)CO)C[C@@H]2C)cc1`, the cytotoxicity call in the experiment on HSkMC and in the experiment with HepG2 was “inactive” throughout. In addition, in the experiment on S. aureus RN4220, the growth inhibition call was “inactive”.
Turning to `C[C@H](CO)N1C[C@H](C)[C@@H](CN(C)Cc2ccc(Oc3ccccc3)cc2)Oc2ccc(NC(=O)Nc3cccc4ccccc34)cc2C1=O`, the cytotoxicity call in the experiment with HSkMC and with HepG2 was “inactive” each time. Also, the growth inhibition call in the experiment on S. aureus RN4220 was “inactive”.
Consider `Cc1noc(C)c1S(=O)(=O)Nc1ccc2c(c1)CC(=O)N([C@@H](C)CO)C[C@@H](C)[C@@H](CN(C)S(=O)(=O)c1cn(C)cn1)O2`, for which the cytotoxicity call in the experiment on HSkMC and in the experiment with HepG2 was “inactive” throughout. In the experiment with S. aureus RN4220, the growth inhibition call was “inactive”.
For the compound `NCCCN1CCCN(CCCN)CC1`, the cytotoxicity call with HSkMC and in the experiment with HepG2 was “inactive” throughout. Moreover, in the experiment with S. aureus RN4220, the growth inhibition call is “inactive”.
For the compound `C[C@H](CO)N1C[C@H](C)[C@@H](CN(C)C(=O)Nc2ccc(C(F)(F)F)cc2)Oc2ccc(NC(=O)Nc3ccc(F)cc3)cc2CC1=O`, in the experiment on HSkMC (human skeletal muscle cells), the cytotoxicity call is “inactive”. Further, the cytotoxicity call in the experiment on HepG2 is “active”. Also, the growth inhibition call with S. aureus RN4220 was “inactive”.

The record behind these values is the antibiotic and cytotoxicity screens of Wong et al. (2023).
